Article PMC4336329 (PLoS ONE, 2015)
Screen size: about 310,000 compounds; about 14,000 (4.5%) showed an effect of 50% or more. Effects have a minus sign here. The list shows a part of the results.

Each compound was assayed against human ether-à-go-go-related gene (hERG) potassium channel (human, UniProt Q12809) (assay: primary screen, population patch clamp on CHO cells stably expressing hERG).
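Further: peak tail current of the secondary pulse compared with the same well before compound.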

Sequence of human ether-à-go-go-related gene (hERG) potassium channel (Q12809 whole entry, looked up): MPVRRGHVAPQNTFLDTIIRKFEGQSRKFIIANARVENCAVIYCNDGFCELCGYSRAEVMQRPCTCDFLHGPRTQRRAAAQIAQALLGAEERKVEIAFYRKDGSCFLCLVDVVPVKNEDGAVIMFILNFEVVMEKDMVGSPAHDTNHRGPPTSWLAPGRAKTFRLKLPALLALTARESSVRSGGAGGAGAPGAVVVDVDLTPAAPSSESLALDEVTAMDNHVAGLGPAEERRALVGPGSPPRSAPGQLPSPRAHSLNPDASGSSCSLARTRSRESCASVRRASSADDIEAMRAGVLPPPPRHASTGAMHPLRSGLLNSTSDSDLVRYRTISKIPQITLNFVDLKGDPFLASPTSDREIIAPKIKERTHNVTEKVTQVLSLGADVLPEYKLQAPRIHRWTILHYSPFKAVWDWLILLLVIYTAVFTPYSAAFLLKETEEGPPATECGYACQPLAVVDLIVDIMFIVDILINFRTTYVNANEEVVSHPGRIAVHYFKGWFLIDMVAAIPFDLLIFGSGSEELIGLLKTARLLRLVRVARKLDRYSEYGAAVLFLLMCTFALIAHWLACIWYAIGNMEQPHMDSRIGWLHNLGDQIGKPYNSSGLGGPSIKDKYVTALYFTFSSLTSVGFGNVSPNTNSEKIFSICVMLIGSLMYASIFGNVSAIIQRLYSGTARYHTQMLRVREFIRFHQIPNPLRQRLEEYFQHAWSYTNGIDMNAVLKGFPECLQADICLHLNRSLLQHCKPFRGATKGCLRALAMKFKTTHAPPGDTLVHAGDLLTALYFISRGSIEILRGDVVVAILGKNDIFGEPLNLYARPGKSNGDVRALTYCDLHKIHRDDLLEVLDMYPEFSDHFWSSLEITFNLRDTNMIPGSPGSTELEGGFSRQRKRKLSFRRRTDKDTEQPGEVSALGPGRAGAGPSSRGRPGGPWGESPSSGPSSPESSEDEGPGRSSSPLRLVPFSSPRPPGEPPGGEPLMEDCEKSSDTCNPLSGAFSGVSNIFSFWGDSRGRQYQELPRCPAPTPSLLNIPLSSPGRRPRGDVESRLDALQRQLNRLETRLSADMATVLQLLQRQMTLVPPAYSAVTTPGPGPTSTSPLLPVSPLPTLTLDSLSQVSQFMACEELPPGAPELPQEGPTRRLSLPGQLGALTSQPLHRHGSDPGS

SMILES | hERG current change (%, negative = inhibition) at 10uM [%]
Cc1ccc(/C=C/C(=O)OCC(=O)NCCN2C(=O)CSC2=O)cc1 | -17.9
Cc1ccccc1-c1noc(N)c1C#N | 0.198
CCN(CCNc1ccc([N+](=O)[O-])c2cccnc12)S(=O)(=O)c1ccccc1 | 11.3
CN1C(=O)CS/C1=N\NC(=O)COc1cccc2cccnc12 | 14.6
COc1ccc(OC)c(CCNC(=O)c2ccc(NC3=NC4CS(=O)(=O)CC4S3)cc2)c1 (stereo not shown) | 4.78
COC(=O)c1c(NC(=O)Cc2cccs2)sc(C(=O)N2CCCCC2)c1C | 7.1
COc1ccccc1N(CC(=O)NCCSCc1ccccc1)S(=O)(=O)c1ccc(C)cc1 | -38.2
O=C(Cc1cccc2ccccc12)Nc1cc(C(=O)O)cc(C(=O)O)c1 | 23.8
CCCCn1c(N)c(N(CC(C)C)C(=O)c2ccc(S(=O)(=O)N(CC)c3ccccc3)cc2)c(=O)[nH]c1=O | 16.3
Cc1cc(OCC(=O)Nc2cccnc2)c2c(C)c(C)c(=O)oc2c1 | 19.8
CCCCn1c(N)c(N(CC(C)C)C(=O)C2=NN(c3cc(C)ccc3C)C(=O)CC2)c(=O)[nH]c1=O | 17.4
COc1cccc(-c2nnc(NC(=O)CCS(=O)(=O)c3ccc(C)cc3)o2)c1 | 11.3
CC(=O)Cc1nsc(NC(=O)c2ccc(-c3cccc(C(F)(F)F)c3)o2)n1 | -0.688
CCc1cc[n+](-c2nc([O-])sc2C=O)cc1 | -5.1
Cc1ccc(-n2nc(-c3ccc(N)cc3)cc2N)cc1 | -47.8
COc1ccc2c(CC(=O)O)cc(=O)oc2c1 | 9.43
Cc1noc(/C=C/N(C)C)c1S(=O)(=O)N1CCCC(C(=O)Nc2ccc(F)cc2F)C1 (stereo not shown) | 5
O=C(CCCNS(=O)(=O)c1cccs1)N1CCN(c2cccc(Cl)c2)CC1 | -56.9
N#Cc1c(NC(=O)c2ccc(Cn3cc(Br)cn3)o2)sc2c1CCCCC2 | 7.39
Cc1cc2ccccc2n2c(SCC(=O)N3CCOCC3)nnc12 | 0.857
CC(C)CNC(=O)c1cnn2c(C(F)(F)F)cc(C(F)(F)F)nc12 | 16.1
COc1ccc(OC)c(S(=O)(=O)N2CCc3ccccc3C2)c1 | -11

SMILES | hERG current change (%, negative = inhibition) at 10uM [%]
COc1ccc(CNC(=O)c2ccccc2[N+](=O)[O-])cc1 | -5.73
S=C(NCc1ccccc1)N/N=C/c1cccs1 | 19.6
CCOC(=O)C(C(=O)Nc1cccc(C)n1)C1CCCCC1 (stereo not shown) | -28.8
COc1ccccc1N1CCN(C(=O)COc2ccc(Cl)cc2)CC1 | -68.5
O=c1ccc2c(-c3ccccc3S(=O)(=O)O)c3ccc(O)c(O)c3oc-2c1O | 16.5
Oc1ccc(Br)cc1/C=N/n1c(-c2ccccc2)n[nH]c1=S | 12
CCC(=O)Nc1nnc(CSCc2ccc(F)cc2)s1 | 1.49
CS(=O)(=O)N(CC(=O)NCCSC1CCCCC1)c1ccccc1 | 5.01
O=c1c2ccccc2nc(/C=C/c2c[nH]c3ccccc23)n1-c1ccc([N+](=O)[O-])cc1 | 16.2
O=C(CCc1nnc(COc2ccccc2)o1)NCCc1cccs1 | 16.2
COc1ccc(NC(=O)c2ccc(NC(=O)COC(=O)CC(NC(=O)c3ccccc3Cl)c3ccccc3)cc2)cc1 (stereo not shown) | -2.55
COc1cccc(C2/C(=C(\O)c3ccc4c(c3)OCCO4)C(=O)C(=O)N2CCCn2ccnc2)c1 (stereo not shown) | 2.41
COc1ccc(CN2CCNCC2)c(OC)c1OC | 9.67
O=C(O)CCC(=O)N1CN2CN(C(=O)CCC(=O)O)CC([N+](=O)[O-])(C2)C1 | 14.8
COc1ccc(NS(=O)(=O)c2cc(NC(=O)Cn3cnc4c3c(=O)n(C)c(=O)n4C)ccc2C)cc1 | -10.5
CC1=C(C(=O)OCc2ccc3c(c2)OCO3)C(c2ccc(O)c([N+](=O)[O-])c2)NC(=O)N1 (stereo not shown) | 8.45
O=C(NCc1ccco1)C(=O)NCC1OCCCN1S(=O)(=O)c1ccccc1 (stereo not shown) | 17.4
Nc1c(-c2ccc(Cl)cc2)cnn1-c1cccc([N+](=O)[O-])c1 | 5.91
O=[N+]([O-])c1cc(-c2cnc3ccccc3n2)ccc1Cl | 0.838
CCCSc1nc(O)c(CC)c(=O)n1C(C)CC (stereo not shown) | -0.121
Clc1ccc(CN2CCN(c3ncccn3)CC2)cc1 | -4.03
